From PMC2685004, “Recruitment of a SAP18-HDAC1 Complex into HIV-1 Virions and Its Requirement for Viral Replication” (PLoS Pathogens, 2009)
Results are given in words; binding and its absence hold for the method and conditions named. For some of these results: Binding seen in cells or lysates may run through a third protein. Some entries that bind do so weakly or less than the wild type. For some of these results: Tags and fused reporters may be left off the sequences shown. Each block holds one molecule with its values, some of them ahead of it.

Protein sequences, listed by entry. Tags and fused reporters are not part of them.
UniProt Q12824: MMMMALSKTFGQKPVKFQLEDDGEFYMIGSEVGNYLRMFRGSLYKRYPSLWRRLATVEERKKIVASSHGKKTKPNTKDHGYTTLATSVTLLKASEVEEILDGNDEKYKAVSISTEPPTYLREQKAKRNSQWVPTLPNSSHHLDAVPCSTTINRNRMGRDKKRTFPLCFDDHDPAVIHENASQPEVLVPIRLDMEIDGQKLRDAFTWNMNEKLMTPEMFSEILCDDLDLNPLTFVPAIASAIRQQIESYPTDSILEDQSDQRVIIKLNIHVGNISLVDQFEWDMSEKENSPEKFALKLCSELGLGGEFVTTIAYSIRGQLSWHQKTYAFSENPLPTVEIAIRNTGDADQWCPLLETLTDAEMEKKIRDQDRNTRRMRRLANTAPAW
UniProt Q13547: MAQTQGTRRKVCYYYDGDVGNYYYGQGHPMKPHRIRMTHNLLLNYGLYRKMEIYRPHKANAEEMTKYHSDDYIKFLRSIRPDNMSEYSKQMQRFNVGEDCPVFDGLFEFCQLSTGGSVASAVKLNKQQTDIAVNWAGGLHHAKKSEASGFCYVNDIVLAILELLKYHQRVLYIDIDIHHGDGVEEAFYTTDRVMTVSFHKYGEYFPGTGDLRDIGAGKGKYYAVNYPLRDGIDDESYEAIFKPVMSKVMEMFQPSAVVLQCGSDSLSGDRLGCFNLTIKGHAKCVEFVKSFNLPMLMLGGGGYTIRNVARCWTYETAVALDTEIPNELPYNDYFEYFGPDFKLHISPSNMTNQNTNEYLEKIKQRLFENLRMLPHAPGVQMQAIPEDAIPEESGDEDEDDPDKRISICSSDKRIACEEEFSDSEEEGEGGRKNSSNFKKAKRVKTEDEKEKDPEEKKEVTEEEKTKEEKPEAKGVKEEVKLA
UniProt P01106: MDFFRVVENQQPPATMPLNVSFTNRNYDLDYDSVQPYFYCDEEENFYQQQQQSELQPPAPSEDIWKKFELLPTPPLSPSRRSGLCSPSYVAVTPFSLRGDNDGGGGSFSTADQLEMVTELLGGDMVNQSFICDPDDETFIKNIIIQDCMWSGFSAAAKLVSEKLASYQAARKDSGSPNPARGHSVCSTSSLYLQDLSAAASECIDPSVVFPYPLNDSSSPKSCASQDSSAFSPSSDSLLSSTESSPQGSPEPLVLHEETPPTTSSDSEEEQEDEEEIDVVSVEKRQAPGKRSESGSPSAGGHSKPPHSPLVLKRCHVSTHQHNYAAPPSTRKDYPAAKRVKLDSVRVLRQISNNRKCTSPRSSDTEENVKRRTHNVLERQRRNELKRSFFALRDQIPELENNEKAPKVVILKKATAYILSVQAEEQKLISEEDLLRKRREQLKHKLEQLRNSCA
UniProt P51532: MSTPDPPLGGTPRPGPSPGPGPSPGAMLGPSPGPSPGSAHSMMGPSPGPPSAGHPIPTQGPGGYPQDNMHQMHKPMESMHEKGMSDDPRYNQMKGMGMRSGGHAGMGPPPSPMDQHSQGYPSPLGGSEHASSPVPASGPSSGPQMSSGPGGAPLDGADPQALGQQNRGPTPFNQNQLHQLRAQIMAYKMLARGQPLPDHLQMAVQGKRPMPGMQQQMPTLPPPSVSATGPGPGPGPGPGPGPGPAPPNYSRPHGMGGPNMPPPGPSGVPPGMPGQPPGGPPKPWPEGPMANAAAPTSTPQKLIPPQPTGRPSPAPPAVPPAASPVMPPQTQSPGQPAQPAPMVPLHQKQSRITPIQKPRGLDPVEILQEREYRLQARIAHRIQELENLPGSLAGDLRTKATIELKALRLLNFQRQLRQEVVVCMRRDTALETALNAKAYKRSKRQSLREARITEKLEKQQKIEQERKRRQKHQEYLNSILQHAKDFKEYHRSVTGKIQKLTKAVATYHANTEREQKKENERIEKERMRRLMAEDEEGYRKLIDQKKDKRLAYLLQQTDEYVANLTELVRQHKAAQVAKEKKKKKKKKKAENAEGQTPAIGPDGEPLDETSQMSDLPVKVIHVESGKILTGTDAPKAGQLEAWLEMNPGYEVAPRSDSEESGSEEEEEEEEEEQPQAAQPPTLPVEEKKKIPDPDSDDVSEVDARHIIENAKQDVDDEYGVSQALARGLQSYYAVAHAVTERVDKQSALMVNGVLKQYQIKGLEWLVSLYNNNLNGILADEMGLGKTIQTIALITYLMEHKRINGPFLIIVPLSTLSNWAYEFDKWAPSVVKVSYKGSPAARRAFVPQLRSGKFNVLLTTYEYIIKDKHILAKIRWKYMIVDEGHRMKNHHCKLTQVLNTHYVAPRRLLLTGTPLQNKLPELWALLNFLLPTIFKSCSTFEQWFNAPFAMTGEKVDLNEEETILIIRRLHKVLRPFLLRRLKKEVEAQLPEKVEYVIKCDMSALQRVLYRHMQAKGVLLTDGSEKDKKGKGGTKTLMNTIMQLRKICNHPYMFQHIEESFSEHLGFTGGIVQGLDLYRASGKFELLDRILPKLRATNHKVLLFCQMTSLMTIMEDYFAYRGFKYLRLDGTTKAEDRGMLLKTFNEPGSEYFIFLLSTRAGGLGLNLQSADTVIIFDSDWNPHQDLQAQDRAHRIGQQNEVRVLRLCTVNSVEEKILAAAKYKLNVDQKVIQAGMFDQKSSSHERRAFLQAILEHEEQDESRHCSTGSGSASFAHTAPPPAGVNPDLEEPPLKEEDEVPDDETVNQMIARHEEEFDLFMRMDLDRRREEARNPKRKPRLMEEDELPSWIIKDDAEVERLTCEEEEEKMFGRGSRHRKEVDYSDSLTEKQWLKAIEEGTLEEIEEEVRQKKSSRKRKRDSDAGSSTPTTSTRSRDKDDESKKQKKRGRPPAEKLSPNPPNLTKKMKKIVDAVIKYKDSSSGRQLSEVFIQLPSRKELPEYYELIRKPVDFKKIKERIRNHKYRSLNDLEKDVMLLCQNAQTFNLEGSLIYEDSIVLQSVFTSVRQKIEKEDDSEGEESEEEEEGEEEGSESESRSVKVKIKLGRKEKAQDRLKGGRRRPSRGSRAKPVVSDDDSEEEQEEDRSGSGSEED
UniProt Q12873: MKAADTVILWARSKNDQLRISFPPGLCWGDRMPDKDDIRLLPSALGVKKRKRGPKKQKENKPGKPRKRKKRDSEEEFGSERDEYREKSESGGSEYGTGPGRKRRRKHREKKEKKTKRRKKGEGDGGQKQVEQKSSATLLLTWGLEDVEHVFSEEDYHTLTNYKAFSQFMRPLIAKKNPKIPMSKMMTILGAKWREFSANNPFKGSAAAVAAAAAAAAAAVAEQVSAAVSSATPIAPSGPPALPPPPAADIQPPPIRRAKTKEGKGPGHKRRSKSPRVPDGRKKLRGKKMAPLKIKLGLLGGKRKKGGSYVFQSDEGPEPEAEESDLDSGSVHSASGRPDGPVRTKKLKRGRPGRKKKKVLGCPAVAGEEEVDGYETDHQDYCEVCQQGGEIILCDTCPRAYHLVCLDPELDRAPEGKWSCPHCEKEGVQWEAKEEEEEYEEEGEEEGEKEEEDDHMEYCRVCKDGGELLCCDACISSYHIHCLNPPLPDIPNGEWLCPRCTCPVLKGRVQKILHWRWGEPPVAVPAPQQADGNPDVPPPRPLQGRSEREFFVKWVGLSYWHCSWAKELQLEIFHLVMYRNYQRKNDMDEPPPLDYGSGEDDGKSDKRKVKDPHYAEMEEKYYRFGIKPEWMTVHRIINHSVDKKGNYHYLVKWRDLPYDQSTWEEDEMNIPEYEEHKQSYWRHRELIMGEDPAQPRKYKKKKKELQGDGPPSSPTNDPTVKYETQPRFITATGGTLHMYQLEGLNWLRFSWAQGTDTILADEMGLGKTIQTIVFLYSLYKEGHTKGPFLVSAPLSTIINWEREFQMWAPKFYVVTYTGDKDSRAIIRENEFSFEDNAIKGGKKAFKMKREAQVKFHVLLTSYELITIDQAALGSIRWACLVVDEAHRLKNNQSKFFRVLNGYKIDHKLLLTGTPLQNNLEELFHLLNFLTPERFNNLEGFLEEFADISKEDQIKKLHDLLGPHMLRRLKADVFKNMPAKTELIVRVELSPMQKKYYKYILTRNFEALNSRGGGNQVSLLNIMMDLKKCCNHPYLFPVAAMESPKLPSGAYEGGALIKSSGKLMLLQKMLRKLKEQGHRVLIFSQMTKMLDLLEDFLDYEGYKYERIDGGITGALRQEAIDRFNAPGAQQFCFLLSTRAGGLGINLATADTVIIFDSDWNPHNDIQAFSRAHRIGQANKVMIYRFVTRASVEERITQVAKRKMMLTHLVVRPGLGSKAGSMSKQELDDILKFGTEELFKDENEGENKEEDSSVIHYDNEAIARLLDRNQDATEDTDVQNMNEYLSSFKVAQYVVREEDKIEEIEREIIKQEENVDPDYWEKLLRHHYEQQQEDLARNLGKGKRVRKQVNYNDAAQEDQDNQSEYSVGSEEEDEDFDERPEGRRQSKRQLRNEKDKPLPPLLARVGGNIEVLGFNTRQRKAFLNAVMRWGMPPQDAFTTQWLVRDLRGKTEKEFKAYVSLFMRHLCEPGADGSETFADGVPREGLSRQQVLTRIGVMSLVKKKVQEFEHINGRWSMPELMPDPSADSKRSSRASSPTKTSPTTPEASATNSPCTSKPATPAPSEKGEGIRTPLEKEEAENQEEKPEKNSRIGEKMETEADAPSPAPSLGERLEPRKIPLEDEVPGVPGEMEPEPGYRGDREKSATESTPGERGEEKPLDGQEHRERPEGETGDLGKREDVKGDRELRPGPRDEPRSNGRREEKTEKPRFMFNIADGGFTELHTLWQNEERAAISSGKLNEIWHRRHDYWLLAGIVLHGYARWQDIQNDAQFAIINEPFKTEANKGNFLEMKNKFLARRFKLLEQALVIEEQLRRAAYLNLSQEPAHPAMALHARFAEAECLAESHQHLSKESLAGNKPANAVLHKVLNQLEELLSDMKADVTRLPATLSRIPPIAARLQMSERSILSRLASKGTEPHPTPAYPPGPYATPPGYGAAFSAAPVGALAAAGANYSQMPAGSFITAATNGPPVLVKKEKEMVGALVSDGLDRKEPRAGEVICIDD

Key:
[1] = biological target: FLAG-INI1 (in 293T cells) (human) (UniProt Q12824); assay: co-IP; 293T cells co-transfected with FLAG-INI1 and HIV-1 viral vectors or an empty vector (or YFP-IN or pCDNA); α-FLAG antibodies, FLAG Immunoprecipitation Kit
[2] = biological target: HA-INI1/hSNF5 (in MON and HeLa cells) (human) (UniProt Q12824); assay: co-IP; MON (INI1-/-) and HeLa cells transfected with HA-INI1; α-HA or α-HDAC1 antibodies, α-6His or no antibody as controls; buffer G (dPBS, 0.1% IGEPAL), protein A sepharose, 4°C overnight
[3] = biological target: HDAC1, endogenous in MON and HeLa cells (human (endogenous in HeLa and MON)) (UniProt Q13547); assay: as above
[4] = biological target: T1, FLAG-SAP18 (in 293T cells) (UniProt O00422); assay: co-IP; 293T cells transfected with two of HA-INI1, FLAG-SAP18 and YFP-IN; α-FLAG, α-HA or α-GFP antibodies, Protein A Agarose; co-IP buffer with 150 mM NaCl, 1% Triton-X, micrococcal nuclease
T1 sequence: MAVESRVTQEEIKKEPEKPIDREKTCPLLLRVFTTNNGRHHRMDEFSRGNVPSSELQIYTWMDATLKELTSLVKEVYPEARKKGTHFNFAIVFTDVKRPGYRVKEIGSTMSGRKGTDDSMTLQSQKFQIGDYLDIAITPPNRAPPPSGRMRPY

[5] = biological target: T2, SAP18, endogenous in HeLa cells (human (endogenous in HeLa)) (UniProt O00422); assay: co-IP; confluent HeLa cells, endogenous proteins; α-SAP18 antibody or rabbit IgG, Protein A Agarose; 20 mM HEPES-KOH pH 7.9, 150 mM NaCl, 1% Triton-X, micrococcal nuclease
T2 sequence: T1 sequence

[6] = biological target: HA-INI1 (in 293T cells) (human) (UniProt Q12824); assay: co-IP; 293T cells transfected with FLAG-SAP18, HA-INI1 and YFP-IN together; α-HA antibodies, Protein A Agarose; co-IP buffer with 150 mM NaCl, 1% Triton-X, micrococcal nuclease
LexADB-cMYC = LexADB-cMYC (UniProt P01106); assay: two-hybrid; LexADB fusions as bait, GAL4AC fusion of the HL60 cDNA library clone as prey, in yeast
LexADB-INI1 (human) = LexADB-INI1 (human) (UniProt Q12824); assay: as above

Molecule: BRG1, endogenous in 293T cells (from UniProt P51532 1-1647)
binding [1]: binds

Molecule: CHD3, endogenous in MON and HeLa cells (from UniProt Q12873 1-2000)
binding [2]: no binding
binding [3]: binds

Molecule: HDAC1, endogenous in 293T cells (from UniProt Q13547 1-482) (enzyme)
binding [1]: binds

Molecule: INI1, endogenous in HeLa cells (from UniProt Q12824 1-385)
binding [5]: binds

B1: SAP18, endogenous in 293T cells (protein, UniProt O00422 1-153)
chain: T1 sequence
binding [1]: binds

B2: FLAG-SAP18 (in 293T cells) (protein, UniProt O00422 1-153)
chain: T1 sequence
binding [6]: binds

B3: GAL4AC fusion of SAP18 fragment (aa 45-153), clone #18829-49.1 (domain or fragment, UniProt O00422 45-153)
chain: EFSRGNVPSSELQIYTWMDATLKELTSLVKEVYPEARKKGTHFNFAIVFTDVKRPGYRVKEIGSTMSGRKGTDDSMTLQSQKFQIGDYLDIAITPPNRAPPPSGRMRPY
binding (LexADB-cMYC): no binding
binding (LexADB-INI1 (human)): binds

The remaining lines, values ahead:

binding [2]: binds
Molecule: BRG1, endogenous in MON and HeLa cells (from UniProt P51532 1-1647)

binding [4]: binds
Molecule: HA-INI1 (in 293T cells) (from UniProt Q12824 1-385)

binding [3]: binds
Molecule: HA-INI1/hSNF5 (in MON and HeLa cells) (from UniProt Q12824 1-385)

binding [2]: binds
Molecule: HDAC1, endogenous in MON and HeLa cells (from UniProt Q13547 1-482) (enzyme)
